About 4,500 (2.2%) of roughly 200,000 compounds were called active. This list was built around the results that the source calls inconclusive (neither active nor inactive); the mix of calls is not that of the screen. Calls come from the whole dose curve; as a rule, active = well fitted inhibition curve with a large enough effect; inconclusive = small, poorly fitted or top-dose-only effect, or effect the other way; inactive = flat fitted curve, though single readings scatter. Potencies beside an inconclusive call are fits to weak or partial responses and may not hold up.
molecular target: Cruzipain (Trypanosoma cruzi) (UniProt P25779); test: qHTS Assay for Promiscuous and Specific Inhibitors of Cruzain (without detergent); details: purified cruzain, Z-FR-AMC fluorescence, no detergent; note: nearly all actives have a fitted effect of over 40% in size;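 for max response, negative = inhibition: plate controls were enzyme without inhibitor for no effect and buffer without enzyme for full effect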
Chain of UniProt P25779 (P25779 whole entry, looked up): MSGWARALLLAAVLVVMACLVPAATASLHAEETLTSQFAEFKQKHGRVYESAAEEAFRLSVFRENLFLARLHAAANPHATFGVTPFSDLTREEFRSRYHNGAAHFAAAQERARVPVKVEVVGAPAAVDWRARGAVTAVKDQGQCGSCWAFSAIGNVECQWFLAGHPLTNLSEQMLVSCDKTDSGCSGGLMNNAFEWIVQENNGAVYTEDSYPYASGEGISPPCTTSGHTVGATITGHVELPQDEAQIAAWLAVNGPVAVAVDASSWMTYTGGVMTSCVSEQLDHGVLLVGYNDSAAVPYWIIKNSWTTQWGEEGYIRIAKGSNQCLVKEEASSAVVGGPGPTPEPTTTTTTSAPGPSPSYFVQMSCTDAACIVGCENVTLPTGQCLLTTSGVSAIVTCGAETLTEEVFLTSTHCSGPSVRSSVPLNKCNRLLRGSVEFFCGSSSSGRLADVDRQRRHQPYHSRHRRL
Outline: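 Detergent-free condition (0.00005% Triton X-100) in acetate buffer pH 5.5 with DTT. 1.5 nM enzyme and compound were pre-mixed 15 min, then 2 uM Z-FR-AMC substrate added; reaction progress from fluorescence change between first and third reads (60 s).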
Potency is the fitted concentration of half-maximal effect; tags give direction and shape of the fitted curve.

SMILES	Potency	max response, negative = inhibition
CCOc1ccc2nc(Cl)c(C3CC(c4ccco4)=NN3S(=O)(=O)c3ccccc3)cc2c1 (centres undefined)	inconclusive: 39.8 µM [inhibitor, single point]	–
CC1(C)S[C@@H]2[C@H](NC(=O)C3(N)CCCCC3)C(=O)N2[C@@H]1C(=O)O	–	inactive: 0.256%
COc1cc(Cl)c(C)cc1NC(=O)c1cc(S(=O)(=O)N2CCCC2)ccc1F	–	inactive: -11.6%
CC1=C(C(N)=O)C(c2ccc3c(c2)OCO3)n2nc(-c3cccc(C)c3)nc2N1 (centres undefined)	inconclusive: 31.6 µM [inhibitor, single point]	–
CCOc1cc(NC(=O)c2ccco2)c(OCC)cc1NC(=O)Cc1cccc(OC)c1	inconclusive: 39.8 µM [activator, single point]	–
CC(=O)c1ccc(S(=O)(=O)Nc2ccc(-c3cn4c(C)csc4n3)cc2)cc1	active: 25.1 µM	–
C=CCOC(=O)C1=C(C)NC(SCC(=O)N(CC)CC)=C(C#N)C1c1ccccc1 (centres undefined)	inconclusive: 39.8 µM [activator, single point]	–
CCOC(=O)c1c(NC(=O)c2ccc(C)cc2)sc2c1CCCCC2	–	inactive: -1.09%
COc1ccc(C)cc1NC(c1nnc(-c2ccccc2)o1)c1ccc(F)cc1Cl (centres undefined)	inconclusive: 25.1 µM [inhibitor, single point]	–
O=C(CN1CCN(C(=O)c2ccco2)CC1)Nc1ccc(Cl)c(C(F)(F)F)c1	inconclusive: 31.6 µM [activator, single point]	–
Cc1cc(C(=O)COc2ccccc2Cl)c(C)n1-c1ccc2c(c1)OCO2	inconclusive: 31.6 µM [inhibitor, single point]	–
O=C(c1cnccn1)N1CCC2(CCCN(Cc3nccs3)C2)CC1	–	inactive: 0.102%
COc1cccc(-c2csc(-c3c(N)c(C(=O)c4ccc5c(c4)OCO5)n4ccccc34)n2)c1	active: 3.16 µM	–
CCc1ccc(C2NC(c3ccc(CC)cc3)C([N+](=O)[O-])C(C)(C)C2[N+](=O)[O-])cc1 (centres undefined)	inconclusive: 39.8 µM [inhibitor, single point]	–
CCOC(=O)c1sc(NC(=O)c2cc3n(n2)C(C(F)(F)F)CC(c2cccs2)N3)c(C(=O)OCC)c1C (centres undefined)	inconclusive: 3.16 µM [inhibitor, full curve]	–
CCn1c(CNC(=O)COc2ccc(C(C)C)cc2)nnc1SCC(=O)Nc1cc(F)ccc1C	inconclusive: 31.6 µM [activator, single point]	–
Nc1cc(N)nc(SCC(=O)N2CCc3ccccc32)n1	inconclusive: 31.6 µM [inhibitor, single point]	–
CC(C)CNC(=O)c1c(N)n(Cc2ccco2)c2nc3ccccc3nc12	inconclusive: 39.8 µM [activator, single point]	–
COCCCN1CN(S(=O)(=O)c2ccc(Cl)cc2)c2nc3ccccc3nc21	inconclusive: 31.6 µM [activator, single point]	–
Cc1ccc(-c2csc(NC(=S)NC(=O)c3ccco3)n2)cc1	inconclusive: 31.6 µM [inhibitor, single point]	–
N#C/C(=C/c1ccc(N2CCCCC2)o1)C(=O)Nc1ccc2ccccc2c1	inconclusive: 31.6 µM [inhibitor, single point]	–
Cc1cc(NC(=O)CSc2nc(C(C)C)nc3ccccc23)no1	inconclusive: 31.6 µM [activator, single point]	–

SMILES	Potency	max response, negative = inhibition
Cc1ccc(OC(=O)c2cccc(S(=O)(=O)N3CCCC3)c2)c(-n2nc3ccccc3n2)c1	inconclusive: 39.8 µM [inhibitor, single point]	–
CCCCn1nnnc1NCc1ccc(N2CCCC2)cc1	inconclusive: 31.6 µM [inhibitor, single point]	–
CC(C)c1nn2c(=O)cc(COC(=O)C3CCCCC3)nc2s1	–	inactive: 2.95%
COc1cc(NC(=O)CN(c2ccc(C)cc2)S(=O)(=O)c2c(C)n[nH]c2C)cc(OC)c1	inconclusive: 31.6 µM [activator, single point]	–
Cc1ccc(NC(=O)[C@@H](NC(=O)c2cccc(S(=O)(=O)N3CCOCC3)c2)C(C)C)cc1C	inconclusive: 31.6 µM [activator, single point]	–
CCOc1ccc(-c2nc(CSCC(=O)N3CCN(C(=O)c4ccco4)CC3)c(C)o2)cc1	inconclusive: 31.6 µM [activator, single point]	–
O=C(CN(CC1CCCO1)C(=O)Cn1nnc(-c2ccc(F)cc2)n1)NC1CCCCC1 (centres undefined)	inconclusive: 31.6 µM [activator, single point]	–
CC(=O)Nc1ccc(-c2cc(-c3ccccc3)nc(-c3ccccc3)n2)cc1	inconclusive: 39.8 µM [inhibitor, single point]	–
CC(=O)c1ccc(N2CCN(C(=O)c3cc(S(=O)(=O)N4CCCCCC4)cn3C)CC2)cc1	inconclusive: 39.8 µM [activator, single point]	–
O=S(=O)(c1cccs1)N1CN(Cc2cccs2)c2nc3ccccc3nc21	inconclusive: 31.6 µM [inhibitor, single point]	–
Cc1onc(-c2ccccc2)c1C(=O)Nc1cc(C(F)(F)F)ccc1N1CCOCC1	inconclusive: 39.8 µM [activator, single point]	–
COc1ccc(C)cc1NS(=O)(=O)c1cnc(N)nc1	–	inactive: 3.59%
C=CCn1c(=O)c2c(nc(-c3ccc(S(=O)(=O)O)cc3)n2C)n(C)c1=O	inconclusive: 20 µM [activator, partial curve]	–
O=C(Nc1ccccc1C(=O)O)c1ccc(NC(=O)c2ccc(Br)o2)cc1	inconclusive: 31.6 µM [inhibitor, single point]	–
CCOC(=O)CSc1nnc(CNc2ccc(Cl)cc2)n1Cc1ccccc1	inconclusive: 39.8 µM [activator, single point]	–
CCc1ccccc1NC(=O)Cn1nnc2sc3c(c2c1=O)CCC(C(C)(C)C)C3 (centres undefined)	inconclusive: 25.1 µM [inhibitor, single point]	–
Cc1ccc(C)c(NC(=O)Cc2coc3cc(C)cc(C)c23)c1	–	inactive: -21.1%
COc1ccccc1N1CCN(C(=O)C(C)N(c2ccc(C)c(C)c2)S(C)(=O)=O)CC1 (centres undefined)	inconclusive: 39.8 µM [activator, single point]	–
O=C(Nc1cccn(Cc2c(Cl)cccc2Cl)c1=O)c1ccc(Cl)cc1Cl	inconclusive: 39.8 µM [inhibitor, single point]	–
COC(=O)c1sc2nc(CSc3nc4ccc(C)cc4[nH]3)[nH]c(=O)c2c1C	inconclusive: 39.8 µM [activator, single point]	–
O=C(COc1ccc(Cl)cc1)Nc1nc(-c2cccs2)cs1	inconclusive: 20 µM [inhibitor, single point]	–
O=C(Nc1ccccc1C(=O)NC1CCCCC1)c1ccco1	–	inactive: 0.804%

SMILES	Potency	max response, negative = inhibition
O=c1c(-c2cccc(Cl)c2)nc2cncnc2n1-c1ccccc1	–	inactive: -27.6%
Cc1ccc(NC(=O)N2CC3CCCN3c3ccccc32)cc1Cl (centres undefined)	active: 31.6 µM	–
Cc1ccc2c(c1)SC1=NC(c3ccccc3)(C(F)(F)F)NC(=O)N12 (centres undefined)	inconclusive: 31.6 µM [inhibitor, single point]	–
COc1ccc(NC(=O)c2csnn2)cc1Cl	–	inactive: -16.1%
COC(=O)c1ccc(C2C(Oc3ccc(OC)cc3)C(=O)N2CCc2ccc(OC)c(OC)c2)cc1 (centres undefined)	inconclusive: 3.16 µM [activator, single point]	–
Cc1ccc(C(=O)Nc2nnc(S(=O)(=O)N(C)Cc3ccc(Cl)cc3)s2)cc1	–	inactive: -5.61%
CCCC(C)(C)NC(=O)CCCCC(=O)NC(C)(C)CCC	inconclusive: 20 µM [activator, partial curve]	–
CCc1cccc2c(C(=O)COC(=O)c3cccc(S(=O)(=O)N(C)C4CCCCC4)c3)c[nH]c12	inconclusive: 39.8 µM [inhibitor, single point]	–
CCOc1ccc2nc(N3CCCC(C(=O)Nc4ccc(OC)cc4)C3)sc2c1 (centres undefined)	–	inactive: -4.66%
O=c1c2ccccc2nc(SCc2cn3ccsc3n2)n1-c1ccc(F)cc1	inconclusive: 31.6 µM [inhibitor, single point]	–
CC(C)CNC(=O)Nc1cc(C(=O)NCc2ccc(C(C)C)cc2)ccc1N1CCCC1	–	inactive: 8.9%
Clc1ccc2c(c1)C1=C(C(c3ccncc3)O2)C(c2ccc(Br)cc2)n2ncnc2N1 (centres undefined)	inconclusive: 31.6 µM [inhibitor, single point]	–
COc1cc(NC(=O)c2ccco2)c(OC)cc1NC(=O)CCC(=O)Nc1cccc(C)c1C	inconclusive: 31.6 µM [activator, single point]	–
CC1CCN(c2nc(-c3ccc(C(C)(C)C)cc3)nc3ccccc23)CC1	–	inactive: 0.321%
c1ccc(N2CCN(c3nc4ccccc4n4cnnc34)CC2)cc1	inconclusive: 39.8 µM [activator, single point]	–
Cc1ccc(CN2CCCn3nc(C(=O)NCc4ccc(N(C)C)cc4)cc3C2=O)cc1	–	inactive: -2.38%
COc1ccc(/C=C(/CC(=O)Nc2ccccc2)c2nc3ccccc3s2)cc1	inconclusive: 25.1 µM [inhibitor, single point]	–
CCOC(=O)c1ccccc1NC(=O)NCc1c(-n2cccc2)sc2c1CCCC2	–	inactive: -17.4%
COC(=O)c1ccc(C(=O)Nc2cc(Cl)ccc2Cl)cc1NC(=O)c1ccccc1C	inconclusive: 39.8 µM [inhibitor, single point]	–
CC[C@@H]1[C@@H]2Cc3ccc(O)cc3[C@@]1(CC)CCN2C	–	inactive: -3.67%

Source: PubChem BioAssay AID1476 (National Center for Advancing Translational Sciences (NCATS), 2009)
